From the domain aggregation screens of Martell et al. (2025)

Test: soluble fraction after stress (log2 fold change); higher = more stays soluble; pooled small domains, quantitative proteomics
Conditions: stress: 75 degC
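Note: 20 min heating vs room temperature control held 20 min.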

Sequence	soluble fraction (log2)
HMSENDYAILGVKESDSNEEIKKAFRRLAIENHPDKIEHLGETARKKAELNFSKINEAYQRIKKQRG	0.0683
HMALDYYGVLGVNQDATNREIKSAYRKLARELHPDVNPSEEAAEKFKDVTTAYEVLSDPEKRRIVDMGGDP	0.0261
HMATGTVKWFNSTKGYGFIAPDDGGKDIFVHISAVERAGLTGLQDNQKIDFEMQSGRDGRASASDLKL	-0.11
HMGGYEVQSGDTLWDLAVRFYGSGAKASAIYEANRDVIEEEAKKRGKGSSSSGYWIFPGTKLAI	-0.275
HMSGKWALLVLFTLNKSNGTPVRFKQLERDIPDISQKMLTSVLRSLESDGLVSRKAYAEIPPRVEYSLT	-1.14
HMLFDTARAYTDSEVKLGEAFDGIRTEVYIATKTAAQNAEDFWKDLHTSLTNLRTDYIDLYQFH	0.126
HMNNLYETLGVERTASQNEIKKAYRVLARKYHPDANPDDAVAEQKFKEVAMAYEILSDDQKREEYDRFGS	0.28
HMRADRLISLVLLLQTRGRMTARELADELEVTERTIYRDVIALSSAGIPLYTDRGPGGGIALLDS	-1.77
HMAAVLKQGSQGDSVKTVQQKLIRWGYLKGSADGIFGAKTKAAVIAFQKKNGLTADGIIGTRTAQALGISL	-1.78
